Experimental data reported in PubChem BioAssay AID894 (National Center for Advancing Translational Sciences (NCATS), 2007).
Screen size: about 150,000 compounds; about 6,500 (4.3%) were called active. Inconclusive results, whose numbers are uncertain, are shown with a selection of clear calls. The call rests on the fitted dose curve; in most records, active means well fitted inhibition curve with a large enough effect (not every such curve was filed as active); inconclusive means small, poorly fitted or top-dose-only effect, or another doubt; inactive means no such curve, though single readings can be large or run the other way. Where the call is inconclusive, the potency comes from a doubtful curve fit.

These compounds were tested against 15-hydroxyprostaglandin dehydrogenase [NAD(+)] (Homo sapiens) (UniProt P15428) (assay: qHTS Assay for Inhibitors of HPGD (15-Hydroxyprostaglandin Dehydrogenase)). Conditions: purified HPGD, NADH fluorescence kinetic, PGE2 substrate; activity change, negative = inhibition: active compounds read low.
In short: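 NADH formation kinetics: reaction with 30 uM PGE2 and 1 mM NAD+ (final), 20 nM enzyme, Tris-HCl pH 8 with Tween 20, after 15 min compound preincubation at room temperature. Fluorescence change, last versus first of five reads.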
On the % scale 0 is the no-effect control and ±100 the full control effect; potency means the concentration at half of the fitted maximal effect; tags describe the fitted curve by direction and shape.

Chain of UniProt P15428 (P15428 whole entry, looked up): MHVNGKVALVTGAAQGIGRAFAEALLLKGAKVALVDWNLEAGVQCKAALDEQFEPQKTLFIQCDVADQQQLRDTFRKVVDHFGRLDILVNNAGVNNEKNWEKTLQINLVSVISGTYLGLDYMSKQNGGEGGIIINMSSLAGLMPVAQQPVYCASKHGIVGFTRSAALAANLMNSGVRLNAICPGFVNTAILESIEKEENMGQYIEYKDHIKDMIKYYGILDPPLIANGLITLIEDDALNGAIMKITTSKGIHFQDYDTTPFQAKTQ

Potency, active:
N#C/C(=C\c1cccc([N+](=O)[O-])c1)c1nnc2n1CCCCC2 31.6 µM
COc1cc(/C=C(\C#N)C(=O)N2CCOCC2)cc(Br)c1O 25.1 µM
COc1cccc(NC(=O)CSc2nc3ccccc3c(=O)n2CCCC(=O)N2CCCC2)c1 28.2 µM

Potency, inconclusive:
COc1ccc(-c2cc3nc4n(c(=O)c3s2)CCC4)cc1 28.2 µM [inhibitor, partial curve]
O=C(CSCc1cccs1)N1CCCC1 35.5 µM [inhibitor, partial curve]
CN1CCN(S(=O)(=O)c2ccc3c4c(cccc24)C(=O)N3)CC1 31.6 µM [inhibitor, partial curve]
FC(F)(F)c1cc(NC(=S)N2c3ccccc3-n3cccc3[C@H]2c2cccnc2)cc(C(F)(F)F)c1 3.55 µM [inhibitor, partial curve]
COc1ccc(Nc2ncnc3c2oc2ccccc23)cc1 35.5 µM [inhibitor, single point]
c1ccc(-c2nc(N3CCCCC3)nc3ccccc23)cc1 15.8 µM [inhibitor, partial curve]
Cc1ccc(N2CC(C(=O)Nc3ccc(N(C)C)cc3)CC2=O)cc1C (stereo not given) 39.8 µM [inhibitor, partial curve]
O=c1c2ccccc2nc2ccc(NCc3ccco3)nn12 25.1 µM [inhibitor, partial curve]
Cn1c(-c2ccc(CN3CCCCC3)o2)nc2ccccc21 28.2 µM [inhibitor, partial curve]
COc1ccc(-n2c(SCc3ccc([N+](=O)[O-])cc3)nnc2-c2ccccc2)cc1 31.6 µM [inhibitor, partial curve]
CC(=O)Nc1ccc(C(=O)CSc2nc3ccccc3n2CC(=O)N2CCCC2)cc1 35.5 µM [inhibitor, single point]

Activity change, negative = inhibition, inactive:
Cc1ccccc1N(CC(=O)Nc1ccccc1C(=O)NCc1ccco1)S(=O)(=O)c1ccccc1 -13.6%
CC(C)NC(=O)/C(=C/c1ccco1)c1ccccc1 -9.42%
C=CCn1cnc2scc(-c3ccc(C)cc3)c2c1=O -2.76%
O=C(CSc1nnnn1Cc1ccccc1)NCCc1ccccc1 -4.63%
O=C1C=CC(O)(c2cc(=O)c3c(O)cc(O)cc3o2)C=C1 -7.66%
Cc1nn(CC(=O)NCc2ccc(Cl)cc2)c(C)c1[N+](=O)[O-] -20%
